# Assay results published in article PMC4336329 (PLoS ONE, 2015).
# The campaign covered roughly 310,000 compounds. About 2,200 (0.71%) showed an effect of 50% or more. Effects have a minus sign here. This is one part of the list. *1 amine or outer side, *2 acyl side, *3 side chain or, on linkers, in order; H or OH if unused. Where a SMILES comes first, the peptide text is derived from it. Bridges are numbered along the chain shown (N, C = ends). [ ]: non-standard residue; d: D form. ξ: configuration not given here. hSer(Ph(2-I,4-NO2,6-CO)) = O=C([C@H](CCOc1c(I)cc([N+](=O)[O-])cc1C(=O)[*:3])N[*:1])[*:2]; ξD = NC(CC(=O)O)C(=O)O
# Molecular target: human ether-à-go-go-related gene (hERG) potassium channel (human, UniProt Q12809)
# Assay: primary screen, population patch clamp on CHO cells stably expressing hERG
# human ether-à-go-go-related gene (hERG) potassium channel, sequence (Q12809 whole entry, looked up): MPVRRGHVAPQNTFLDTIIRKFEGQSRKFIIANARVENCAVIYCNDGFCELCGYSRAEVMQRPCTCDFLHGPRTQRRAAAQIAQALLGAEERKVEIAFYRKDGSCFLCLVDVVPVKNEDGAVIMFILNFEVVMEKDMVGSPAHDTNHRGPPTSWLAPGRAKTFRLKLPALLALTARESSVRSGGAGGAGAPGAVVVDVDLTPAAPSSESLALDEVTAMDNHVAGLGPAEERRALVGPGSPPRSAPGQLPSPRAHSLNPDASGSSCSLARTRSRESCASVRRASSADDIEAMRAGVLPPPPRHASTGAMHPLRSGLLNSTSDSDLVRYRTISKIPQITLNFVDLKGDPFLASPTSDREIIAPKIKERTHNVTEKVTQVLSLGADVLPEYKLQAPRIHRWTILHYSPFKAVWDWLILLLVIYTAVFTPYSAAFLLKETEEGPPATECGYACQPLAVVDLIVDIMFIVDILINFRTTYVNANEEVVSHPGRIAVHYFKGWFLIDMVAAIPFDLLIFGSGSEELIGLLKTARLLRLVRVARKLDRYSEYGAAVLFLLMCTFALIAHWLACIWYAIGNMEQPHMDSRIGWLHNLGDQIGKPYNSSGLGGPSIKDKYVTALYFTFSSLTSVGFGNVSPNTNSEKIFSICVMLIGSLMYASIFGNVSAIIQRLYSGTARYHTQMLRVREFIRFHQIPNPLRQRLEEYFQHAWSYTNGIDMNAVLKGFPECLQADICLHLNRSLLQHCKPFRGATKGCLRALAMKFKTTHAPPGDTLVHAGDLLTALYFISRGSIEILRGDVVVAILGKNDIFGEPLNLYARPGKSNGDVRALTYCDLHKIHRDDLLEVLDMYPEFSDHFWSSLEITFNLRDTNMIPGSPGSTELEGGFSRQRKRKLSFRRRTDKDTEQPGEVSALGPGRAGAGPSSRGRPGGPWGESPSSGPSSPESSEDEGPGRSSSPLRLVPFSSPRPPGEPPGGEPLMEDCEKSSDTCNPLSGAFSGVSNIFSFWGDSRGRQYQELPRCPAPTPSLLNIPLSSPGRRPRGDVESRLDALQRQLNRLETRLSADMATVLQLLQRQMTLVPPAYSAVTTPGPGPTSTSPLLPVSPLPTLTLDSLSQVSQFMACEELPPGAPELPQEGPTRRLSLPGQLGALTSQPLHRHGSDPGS
row,Structure (SMILES),"hERG current change (%, negative = inhibition) at 1uM [%]"
1,COC(=O)COc1cccc(NC(=O)c2cccs2)c1,9.68
2,Cc1nnc(SCc2ccccc2)nc1/C=C/NOCc1ccc(Cl)cc1Cl,6.82
3,CCN1CCN(Cc2ccc(NC(=O)CC3Oc4ccc(C)cc4NC3=O)cc2)CC1 (centres unmarked),5.32
4,COc1ccc(CNC(=O)C(c2ccco2)N(C(=O)c2ccccn2)c2ccccc2)cc1 (centres unmarked),8.96
5,O=C(CN1CCOCC1)Nc1nc(-c2ccccc2)cs1,11.4
6,COc1ccccc1NC(=O)c1ccccc1NC(=O)c1ccccc1C(=O)O,12.9
7,Cc1ccc(C)c(NS(=O)(=O)c2ccc(-c3ccc(=O)[nH]n3)o2)c1,10.7
8,CN1C(=O)C(/C(N)=N/NC(=O)c2ccccc2)C2CC1(C)Oc1ccccc12 (centres unmarked),12.3
9,COc1ccccc1C1CCN(c2ccc([N+](=O)[O-])c(OC)c2)CC1,8.48
10,CCOc1cc(C(=O)Nc2ccc(C)cc2O)ccc1OCC(=O)N1CCOCC1,0.439
11,Cc1ccc(OCc2nnc(SCC(=O)c3cccs3)n2-c2ccccc2)cc1C,8.53
12,O=C(NC(Nc1nc2ccc([N+](=O)[O-])cc2s1)(C(F)(F)F)C(F)(F)F)c1ccccc1Cl,-0.905
13,O=C(Cn1nc(CNc2ccc(Br)cc2)[n+]2c1CCCCC2)c1ccc([N+](=O)[O-])cc1.[Br-],-11.5
14,CC(=O)Nc1ccc(NC(=O)c2ccc(S(=O)(=O)N(C)c3ccccc3)cc2)cc1,15.1
15,Cc1ccc2cc(CN(Cc3ccco3)C(=O)NC3CCCCC3)c(=O)[nH]c2c1C,-25.2
16,Cc1c(OC(C)C(=O)NCCN2CCOCC2)ccc2c(-c3ccccc3)cc(=O)oc12 (centres unmarked),-1.69
17,CCOC(=O)c1cccc(NC(=O)CCc2nnc3ccc(N4CCOCC4)nn23)c1,11.7
18,COc1ccc(/C(C)=N/Nc2nccnc2Cl)cc1,5.66
19,CC(C)(C)NC(=O)c1cc(-c2ccccc2)n[nH]1,28.4
20,COc1ccc(C(=O)Nc2ccc(S(=O)(=O)Nc3onc(C)c3C)cc2)cc1,9.09
21,CCOC(=O)C1CCN(S(=O)(=O)c2ccc(C)c(C)c2)CC1,7.04

row,Structure (SMILES),"hERG current change (%, negative = inhibition) at 1uM [%]"
1,Cc1ccc(NC(=O)CN2C(=O)NC3(CCCc4ccccc43)C2=O)c([N+](=O)[O-])c1 (centres unmarked),-20.2
2,CCOC(=O)N1CCC(NC(=O)CS(=O)Cc2nc(-c3ccccc3C)oc2C)CC1 (centres unmarked),3.57
3,"NC(=O)C(CC(=O)O)NC(=O)[C@@H]1CCOc2c(I)cc([N+](=O)[O-])cc2C(=O)N[C@@H](CCC(=O)O)C(=O)N[C@@H](CO)C(=O)N1 (some centres unmarked) (ES[hSer(Ph(2-I,4-NO2,6-CO))][ξD]-NH2; lactam N-3)",-6.53
4,O=C(OCc1ccc(Cl)c(Cl)c1)c1cccnc1Cl,20.2
5,Cc1cc(C)c2c(=O)cc(C(F)F)oc2c1,9.75
6,Cc1ccc(-c2nnc(SCC#CCOC(=O)c3ccco3)o2)cc1,11.2
7,CCOC(=O)c1cc(CC)sc1NC(=O)CC1Sc2ccc(C(F)(F)F)cc2NC1=O (centres unmarked),17.9
8,CCCCN1C(=O)N(c2ccccc2Cl)C(C)(O)CC1(C)C (centres unmarked),17.3
9,Cc1cccc(NC(=O)c2ccc(S(=O)(=O)C(F)F)cc2)c1C,10.9
10,CN(C)c1nc(SCc2ccccc2Cl)nc2c1CCCC2,11.7
11,COc1ccc(-c2noc(N3CCC(C(=O)Nc4ccc(F)cc4)CC3)n2)cc1,-0.13
12,CC1CN(C(=O)c2cccc(Oc3ccccc3)c2)CC(C)O1 (centres unmarked),19.7
13,CC(=O)c1ccc(NC(=S)N2CCCC2)cc1,15.2
14,C=CCSC1=C(C#N)C(c2ccccc2Cl)C(C(=O)c2cccs2)C(O)(C(F)(F)F)N1 (centres unmarked),3.64
15,O=C(CSCCNS(=O)(=O)c1ccccc1)Nc1ccccc1,4.03
16,COc1ccccc1OCc1ccc(C(=O)NN)cc1,5.11
17,CC(C)Oc1ccc(CN2CCC(n3nccc3NC(=O)CCc3ccccc3)CC2)cc1,-86.3
18,CC(C)CNC(=O)NC(=O)COC(=O)COc1ccc(Cl)cc1Cl,11.3
19,COc1ccc(NS(=O)(=O)c2cccc(NC(=O)NC3CCCCC3)c2)cc1,9.84
20,N/C(Cc1ccc([N+](=O)[O-])cc1)=N\OC(=O)c1cccc(Br)c1,-11.9
21,C[C@@H](Oc1ccccc1)c1nnn(Cc2ccccc2)c1-c1c([C@@H](C)Oc2ccccc2)nnn1Cc1ccccc1,6.17

row,Structure (SMILES),"hERG current change (%, negative = inhibition) at 1uM [%]"
1,N/C(=N\OC(=O)Cc1cccs1)c1ccc([N+](=O)[O-])cc1,6.94
2,C=CCn1c(-c2cccnc2Cl)nc2cc(Cl)c(Cl)cc21,16.4
3,CC(=O)Nc1cc(C(=O)N2CCC3(CC2)OCCO3)ccc1Sc1ccc(C)cc1,-0.665
4,O=C(COC(=O)c1cncc(Br)c1)NC1CCCC1,9.2
5,O=C(CCc1ccncc1)NC1CCCc2c1cnn2-c1ccc(F)cc1F (centres unmarked),3.41
6,COc1ccc(NC(=O)COC(=O)[C@@H](NC(=O)c2c(F)cccc2F)C(C)C)cc1,4.65
7,Cc1ccc(-n2ncc3c(NNC(=O)c4ccco4)ncnc32)cc1Cl,16.1
8,c1ccc2c(c1)CCN(c1nc3cc4c(cc3s1)OCO4)C2,12.9
9,CCOC(=O)c1cc(-c2ccc(OC)cc2)n(CCC(=O)NC2CCN(Cc3ccccc3)CC2)c1C,-19.9
10,O=S(=O)(NCC1CCCO1)c1ccc(S(=O)(=O)N(Cc2ccc(F)cc2)Cc2ccco2)cc1 (centres unmarked),6.06
11,CC(=O)c1nn(-c2cccc(Br)c2)cc1C(=O)c1ccc(Br)cc1,8.65
12,CCCCNc1nc(C)c(C(C)=O)cc1C#N,19.1
13,CC(OC(=O)/C(C#N)=C/c1ccc(N(C)C)cc1)C(=O)N(C)c1ccccc1 (centres unmarked),4.66
14,O=C(CN(c1ccc(F)cc1)S(=O)(=O)c1ccc2c(c1)OCCO2)NCc1ccncc1,-10.2
15,CCOC(=O)CNC(=O)CSc1cc(C)nc2ccc(OC)cc12,16.5
16,O=C(CSCc1ccccc1Cl)Nc1c[nH]c(=O)[nH]c1=O,13.8
17,CC(C)=CCCC(C)CN1CCC(n2nccc2NC(=O)c2cccnc2)CC1 (centres unmarked),-5.79
18,Cc1nc(C)c(-c2nnc(-c3ccccc3Cl)o2)cc1C(=O)NN,3.19
19,CC1CCN(c2ccc(C(=O)NCc3ccco3)cc2[N+](=O)[O-])CC1,0.326
20,CCN(CC)C(=O)c1sc(NC(=O)c2ccoc2C)c(C(=O)OC)c1C,13.8
21,CC(Oc1ccc(Cl)cc1)C(=O)OCC(=O)Nc1ncc(Cl)cc1Cl (centres unmarked),3.29

row,Structure (SMILES),"hERG current change (%, negative = inhibition) at 1uM [%]"
1,COc1ccc(C(=O)NC(C(=O)N2CCc3ccccc32)C(C)C)cc1 (centres unmarked),11
2,Cc1nn(-c2ccccc2)c2sc(C(=O)N(Cc3ccco3)C(C)C(=O)NC(C)(C)C)cc12 (centres unmarked),8.78
3,COc1ccc(C(C(=O)Nc2ccc3c(c2)OCO3)N(C)C(=O)Cc2c[nH]c3ccccc23)cc1 (centres unmarked),-2.04
4,C=C1CCC[C@]2(C)C[C@H]3OC(=O)C(CNC(C)CC)[C@H]3CC12 (some centres unmarked),8.22
5,Fc1cccc(CN2CCN(c3ccc(Cl)cc3)CC2)c1,16.7
6,Cc1cc(C)c(C#N)c(SCc2c(F)cccc2[N+](=O)[O-])n1,4.42
7,CCOc1ccc(NC(=O)C(CC)NC(=O)c2ccccc2CO)cc1 (centres unmarked),6.33
8,O=S(=O)(NC1CCCCC1N1CCN(c2cccc(Cl)c2)CC1)c1ccccc1 (centres unmarked),9.03
9,CN(Cc1ccccc1)C(=O)C1CCN(S(C)(=O)=O)CC1,11.2
10,O=C(Nc1ccc([N+](=O)[O-])cc1)Nc1ccc2[nH]c(=O)[nH]c2c1,6.63
11,CC(C)CC(NC(N)=O)C(=O)NCc1ccc(Cl)cc1 (centres unmarked),5.25
12,O=C(CSc1nnc(CNC(=O)c2ccco2)o1)c1ccc(Cl)cc1,7.67
13,COCCNc1nc(SCC(=O)N2CCN(c3ccccc3OC)CC2)nc2ccccc12,-92.9
14,Cc1cc(NC(=O)COC(=O)COc2ccc3c4c(c(=O)oc3c2)CCC4)no1,-3.06
15,COc1cc(OC)c(C(=O)/C=C/c2ccccc2)c(O)c1O,11.3
16,COc1ccc(-n2c(/C=C/c3ccc(O)c(O)c3)nc3ccccc3c2=O)cc1,13.2
17,Cn1c(SCC(=O)NCc2cccs2)nnc1-c1ccc(O)cc1,16.9
18,CCn1c(O)c(/C(C)=N/N2CCCCC2c2cccnc2)c(=O)[nH]c1=S (centres unmarked),-6.86
19,O=C(Nc1ccccc1)c1cc(N2CCOCC2)nc2ccccc12,8.28
20,COc1cccc(CNC(=O)c2nnn(CC(=O)Nc3ccc4c(c3)OCO4)c2N)c1,9.62
